# Some of the results follow. The energies were worked out here from pooled read counts, against the library average; single values are noisy.
# Biological target: T1, Pho4 (S. cerevisiae) (UniProt P07270)
# T1 sequence: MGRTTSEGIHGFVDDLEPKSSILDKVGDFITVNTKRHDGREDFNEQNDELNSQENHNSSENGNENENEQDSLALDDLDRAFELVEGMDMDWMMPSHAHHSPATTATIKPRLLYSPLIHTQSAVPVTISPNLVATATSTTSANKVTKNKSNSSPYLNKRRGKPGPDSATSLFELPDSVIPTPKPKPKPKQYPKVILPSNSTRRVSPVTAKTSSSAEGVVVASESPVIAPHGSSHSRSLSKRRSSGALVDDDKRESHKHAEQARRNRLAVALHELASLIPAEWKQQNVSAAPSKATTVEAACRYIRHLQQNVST
# Test: relative binding free energy (BET-seq); higher = weaker binding
# Conditions: reference: library average
row,Sequence,relative binding free energy [kcal/mol]
1,TGTTTCACGTGTAAAA,0.39
2,GAAGGCACGTGAAGGT,0.24
3,TTAACCACGTGGTTGG,-0.26
4,GTCGTCACGTGGGAAG,0.04
5,ATGCGCACGTGTTGCT,-0.13
6,ATAAGCACGTGGATGG,-0.12
7,TTTGGCACGTGTCGGC,-0.02
8,GTCATCACGTGGGCAT,0.23
9,GAGTACACGTGTGCGT,0.17
10,GGCGTCACGTGACGTT,0.36
11,TATGGCACGTGTAGAA,-0.13
12,GGATTCACGTGCTGGA,0.33
13,GGCGACACGTGGTGGA,0.18
14,ATGGTCACGTGTGTCA,0.03
15,TGGAGCACGTGGTGGT,-0.15
16,AAGTCCACGTGAGTGT,0.17
17,GGAGGCACGTGTGGGG,0.01
18,TATAACACGTGTAGTG,-0.04
19,AGAAACACGTGGTTGT,0.02
20,TGGCTCACGTGTGGGT,0.29
21,TGTTTCACGTGGTAAT,0.24
22,GAAATCACGTGTATTA,0.3
23,TTAGACACGTGGTCTT,-0.09

row,Sequence,relative binding free energy [kcal/mol]
1,TAATTCACGTGTGACG,0.38
2,TTAGGCACGTGCTGGG,-0.16
3,CGGGCCACGTGGTTAG,-0.13
4,GGTGTCACGTGCGGTA,0.04
5,TGTATCACGTGGATTC,0.19
6,AAGAACACGTGGTAGT,0.01
7,GATGGCACGTGTCGGT,0.04
8,AGGTTCACGTGGGCAT,0.29
9,GAATTCACGTGGTTTT,0.48
10,TTCTGCACGTGGGCGG,0.01
11,AGGGGCACGTGAATGG,0.21
12,TTATTCACGTGTTTGC,0.22
13,CGTGACACGTGAGGGC,0.19
14,CGTTTCACGTGTATTG,0.35
15,TGGTACACGTGGGGAT,-0.02
16,TGCATCACGTGTAGGT,0.23
17,TTGAGCACGTGTAAGT,0
18,TCGTCCACGTGGGGTA,-0.19
19,AAGGGCACGTGCTGAG,-0.12
20,GTGTCCACGTGGGTGA,0
21,GTATTCACGTGTTGCT,0.23
22,TGACGCACGTGTGTAT,0.05
23,TTTTTCACGTGTAGTG,0.34

row,Sequence,relative binding free energy [kcal/mol]
1,TCGTGCACGTGATGGC,0.16
2,AGTGACACGTGAGAGT,0.19
3,CGGAACACGTGGGGGG,-0.05
4,GTATGCACGTGAGAAG,0.37
5,TCGATCACGTGTTGTT,-0.01
6,GGGATCACGTGTTTCT,0.29
7,TTGACCACGTGATGAT,0.28
8,GGTTTCACGTGTTGAC,0.3
9,GGGCACACGTGGTCTG,-0.05
10,TGTCGCACGTGGAGTA,0.1
11,CTTGTCACGTGTGCTG,-0.01
12,CTTTGCACGTGCGGGG,-0.11
13,TGCTTCACGTGAGTGG,0.37
14,GTGGACACGTGAATGA,0.24
15,ATTGGCACGTGGGTGT,-0.18
16,TTATGCACGTGCTGGA,-0.15
17,TTATTCACGTGCGGGA,0.18
18,ACGGGCACGTGATGGC,0.03
19,TAGGTCACGTGATGCG,0.24
20,TGCGTCACGTGCGGTA,0.09
21,AGGCTCACGTGTTGTT,0.32
22,TTCTACACGTGTAGTG,0.22
23,ATTTGCACGTGAATTT,0.27

row,Sequence,relative binding free energy [kcal/mol]
1,TTAGACACGTGGACGG,0.06
2,GTCGCCACGTGGGTGG,-0.1
3,TTATACACGTGCGTGA,-0.1
4,TCTTGCACGTGTTTAG,0
5,TGAGCCACGTGTATGT,0.02
6,GGGGACACGTGAGAAG,0.39
7,TAAGTCACGTGTTAAT,0.13
8,CTGTTCACGTGGGCGT,0.11
9,CGGAGCACGTGAAGGA,0.35
10,GGGATCACGTGGGGTG,0.12
11,GGCGTCACGTGAGGTT,0.28
12,AGGGACACGTGGGGCC,-0.05
13,TTTTTCACGTGTATCG,0.43
14,GGTTACACGTGTCGGC,0.43
15,TGTGGCACGTGGGACG,-0.22
16,TGGTGCACGTGTTGAA,0.01
17,TTTTACACGTGTTGAT,0.11
18,AATCGCACGTGGTTAA,0.02
19,AGTGACACGTGATGTC,0.25
20,TTGCACACGTGATTTG,0.12
21,AAATCCACGTGTGGGG,0.04
22,TGGTTCACGTGAGAGT,0.37
23,TTAGACACGTGGGTGG,-0.02

row,Sequence,relative binding free energy [kcal/mol]
1,ATTAGCACGTGAGGTT,0.24
2,GAGTACACGTGAGTAG,0.21
3,GAAGGCACGTGTAGGA,-0.07
4,ATGCGCACGTGAGAGG,0.12
5,TGGGACACGTGAGAGT,0.19
6,TGGTTCACGTGTCATT,0.29
7,AATTGCACGTGATGTT,0.17
8,TGTGTCACGTGGAAGA,0.07
9,TATATCACGTGGGGGT,0.07
10,TATGTCACGTGTGCGT,0.02
11,GGGGACACGTGGATTA,0.1
12,TGCGTCACGTGTCGGT,0.07
13,GGGATCACGTGGTGGT,0.24
14,TGAGTCACGTGATGGA,0.3
15,AATTTCACGTGATTGT,0.34
16,CGTTTCACGTGGTAGA,0.13
17,AATGCCACGTGGTGGG,-0.16
18,TAGTACACGTGGAGTT,0.14
19,GAATACACGTGTTAGT,0.14
20,CGTAGCACGTGAAGTT,0.19
21,TTGTTCACGTGTATCG,0.17
22,AGAGGCACGTGTTAGC,-0.05
23,ATTTTCACGTGGTACT,0.18

# From the BET-seq Pho4 binding data (Le et al. 2018)
